# Among all 420,000 compounds or so, about 64,000 (15%) were called active. This list was built around the results that the source calls inconclusive (neither active nor inactive); the mix of calls is not that of the screen. Calls come from the whole dose curve; as a rule, active = well fitted inhibition curve with a large enough effect; inconclusive = small, poorly fitted or top-dose-only effect; inactive = flat fitted curve, though single readings scatter. No potency is given beside an inconclusive call; the fits are too rough.
# Test: qHTS for Inhibitors of human tyrosyl-DNA phosphodiesterase 1 (TDP1): qHTS in cells in absence of CPT; note: nearly all actives have a fitted effect of over 55% in size
# Conditions: DT40 Tdp1-/- hTDP1 cells, no CPT, ATP luminescence, 48 h; activity change, negative = growth inhibition: at 46.2 µM (top of the series) unless noted
# In short: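 Luminescent ATP content (CellTiter-Glo) served as the growth readout. Knockout chicken DT40 cells expressing human TDP1 were exposed to compounds without camptothecin for a minimum 48 hr at 37 °C.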
# % is set by controls: 0 for no effect and ±100 for the full control effect; potency is the fitted concentration of half-maximal effect; tags give direction and shape of the fitted curve.
SMILES,Potency,"activity change, negative = growth inhibition"
O=c1ccc2c(ccc3ncccc32)o1,active: 11.6 µM,–
COc1ccc(CC(NC(C)=O)C(=O)NC2CCN(S(=O)(=O)c3ccc(NC(C)=O)cc3)CC2)c(OC)c1 (centres undefined),inactive,–
O=C(c1ccncc1)N1CCC2(CC1)CCN(c1ccncc1)CC2,inactive,–
Cc1cc(C)nc(NS(=O)(=O)c2ccc(NS(=O)(=O)c3ccc(F)c(F)c3)cc2)n1,inactive,–
CCCCn1nc(C(=O)Oc2ccc3c(C)cc(=O)oc3c2)c2ccccc2c1=O,"inconclusive [inhibitor, partial curve, poor fit]",–
Cc1nnc2c(-c3ccccc3)nc3ccccc3n12,"inconclusive [inhibitor, partial curve]",–
O=C(Nc1ccc(OCCO)cc1)c1csc([C@@H]2C[C@H](O)[C@@H](CO)O2)n1,inactive,–
COc1ccc(CN2CCSCC2)c(C)c1C,inactive,–
CCCN1CNc2c(c(=O)[nH]c(=S)n2CCc2ccc(C)cc2)C1,"inconclusive [inhibitor, single point]",–
CN(CC1CCCN(CCc2ccccc2F)C1)C(=O)c1cc2ccccc2o1 (centres undefined),"inconclusive [inhibitor, single point]",–
COc1cc(NC(=O)C2Cc3ccccc3N2C(=O)c2ccccc2)cc(OC)c1 (centres undefined),"inconclusive [inhibitor, single point]",–
Cc1ccc(NC(=O)CN(C)CC(=O)Nc2ccccc2Oc2ccccc2)cc1,inactive,–
Clc1ccc2nc(CSc3nnc(-c4c[nH]c5ccccc45)o3)cn2c1,inactive,–
O=C(O)c1ccc2c(c1Nc1ccccc1)C(=O)c1ccccc1C2=O,"inconclusive [inhibitor, partial curve]",–
COCCNc1c(-c2ccc(OC)cc2)nc2ccc(Cl)cn12,"inconclusive [inhibitor, partial curve, poor fit]",–
CC(CNC(=O)CCCn1c(=O)c2cccn2c2ccc(F)cc21)c1ccccc1 (centres undefined),"inconclusive [inhibitor, single point]",–
Cc1ccc(-c2nc(CS(=O)CC(=O)NCCc3ccc(Cl)cc3)c(C)o2)cc1 (centres undefined),"inconclusive [inhibitor, single point]",–
CC(=O)Nc1cc(-c2ccc(CO)cc2)cn2c(-c3ccc(F)c(Cl)c3)cnc12,"inconclusive [inhibitor, single point]",–
Cc1ccc2nc3c(c(Nc4cccc(O)c4)c2c1)CCC3,"inconclusive [inhibitor, partial curve]",–
COc1ccccc1NS(=O)(=O)c1cc(NC(=O)c2[nH]c(C)c(C(C)=O)c2C)ccc1N1CCOCC1,active: 2.91 µM,–
N#CC(C#N)=C(N)/C(C#N)=C/c1ccc2[nH]ccc2c1,"inconclusive [inhibitor, partial curve]",–
COc1ccc2c(C)cc(SCC(=O)NC3CCCCC3)nc2c1,"inconclusive [inhibitor, partial curve]",–

SMILES,Potency,"activity change, negative = growth inhibition"
CCN(C(=O)CCc1nc(-c2ccc(OC)cc2)no1)c1cc(OC)ccc1OC,"inconclusive [inhibitor, single point]",–
COc1ccc(S(=O)(=O)Nc2cccc(C(C)=O)c2)cc1Br,"inconclusive [inhibitor, single point]",–
CCCCN(C)C(=O)c1nc2ccccn2c1CNCCCn1ncc2ccccc21,"inconclusive [inhibitor, single point]",–
COc1ccc(S(=O)(=O)n2cnc(C)c2)cc1,inactive,–
COC(=O)c1cc2sccc2n1CC(=O)Nc1cc(Cl)ccc1OC,active: 10.3 µM,–
Oc1oc(-c2ccccc2Br)nc1/C=N/c1ccccn1,"inconclusive [inhibitor, single point]",–
CC(NCc1ccccc1OC1CCCC1)c1ccccc1 (centres undefined),"inconclusive [inhibitor, single point]",–
Cc1cc(C)cc(OCC(=O)N/N=C/c2ccco2)c1,inactive,–
Cc1ccc(NS(=O)(=O)c2cc(C(=O)O)ccc2Cl)cc1,–,inconclusive: -26.3% [inhibitor]
CCCC(C(=O)NCCC(C)C)N(Cc1ccc(OC)cc1)C(=O)c1snc(C(N)=O)c1N (centres undefined),"inconclusive [inhibitor, partial curve]",–
O=C(CCSc1nc(-c2ccc3c(c2)OCO3)cc(C(F)(F)F)n1)NCc1ccco1,"inconclusive [inhibitor, single point]",–
CC(=O)c1cccc(OCc2cc(C(=O)N(C)CCc3ccccn3)no2)c1,"inconclusive [inhibitor, single point]",–
COc1ccc(N2CCN(c3ncnc4c3nnn4C)CC2)cc1,"inconclusive [inhibitor, full curve, poor fit]",–
COc1ccc(C(=O)Nc2nnc(Cc3ccc(OC)c(OC)c3)s2)c(OC)c1,"inconclusive [inhibitor, single point]",–
CC(/C=N/NC(=O)Cn1cnc2c1c(=O)n(C)c(=O)n2C)=C\c1ccccc1,"inconclusive [inhibitor, full curve, poor fit]",–
COc1ccc([C@H]2CC(=O)C=C(c3ccccc3)C2)cc1,"inconclusive [inhibitor, single point]",–
C/C(=N\NC(=O)c1cc(C)oc1C)c1ccc2ccccc2c1,"inconclusive [inhibitor, single point]",–
COc1ccc(CN2CCN(Cc3ccc4cc(F)ccc4n3)CC2CCO)c(C)c1C (centres undefined),"inconclusive [inhibitor, single point]",–
O=C(c1ccncc1)N1CCCC(N2CCN(c3cccc(C(F)(F)F)c3)CC2)C1 (centres undefined),"inconclusive [inhibitor, single point]",–
COc1cc(/C=N/NC(=O)C(=O)NCc2ccco2)cc(Br)c1O,inactive,–
COc1cc(-c2cc(NC(C)=O)c3ncc(-c4ccc(C(C)=O)cc4)n3c2)cc(OC)c1OC,"inconclusive [inhibitor, single point]",–
CN(C)c1cc[n+](CC(=O)N2c3ccccc3Sc3ccccc32)cc1,active: 2.91 µM,–

# — PubChem BioAssay AID686978 (National Center for Advancing Translational Sciences (NCATS), 2013)
